According to patent US20130316901A1 (priority 2011, published 2013):
Like-named read-outs stand apart in the source and are kept apart here.

Assays:
Venturia inaequalis = tested on: Venturia inaequalis
Experimental: • Solvent: 24.5 parts by weight of acetone • 24.5 parts by weight of dimethylacetamide • Emulsifier: 1 part by weight of alkylaryl polyglycol ether
To produce a suitable preparation of active compound, 1 part by weight of active compound is mixed with the to stated amounts of solvent and emulsifier, and the concentrate is diluted with water to the desired concentration.
To test for preventive activity, young plants are sprayed with the preparation of active compound at the stated rate of application. After the spray coating has dried on, the plants are inoculated with an aqueous conidia suspension of the causal agent of apple scab (Venturia inaequalis) and then remain for 1 day in an incubation cabinet at approximately 20° C. and a relative atmospheric humidity of 100%.
The plants are then placed in a greenhouse at approximately 21° C. and a relative atmospheric humidity of approximately 90%.
The test is evaluated 10 days after the inoculation. 0% means an efficacy which corresponds to that of the untreated control, while an efficacy of 100% means that no disease is observed.

Alternaria solani = test: Alternaria test (tomatoes)/preventive; format: in vivo; settings: preventive spray, evaluated 3 days after inoculation
Experimental: Alternaria Test (Tomatoes)/Preventive
The test is evaluated 3 days after the inoculation.

Q: Which “Efficacy in % found” value (Venturia inaequalis; in vivo) does the source give for `Cn1c(=O)c2sc3c(=O)n(C)c(=O)c3sc2c1=O` [(I-1), 2,6-dimethyl-1H,5H-[1,4]dithiino[2,3-c:5,6-c′]dipyrrole-1,3,5,7(2H,6H)-tetrone] here?
A: 36%

Q: And the “Efficacy in % found” value (Alternaria solani; 50 ppm a.i.)?
A: 29%

Q: How did the “Efficacy in % found” value (Venturia inaequalis; apples, preventive spray, 250 ppm a.i., evaluated 10 days after inoculation) turn out when `C[N+](C)(C)CCCl` [C-10.2, chlormequat-chloride] was run?
A: 21%

Q: With `CCOC(=O)C1CC(=O)C(=C(O)C2CC2)C(=O)C1` (centres unmarked) [C-12.27, trinexapac-ethyl] as the molecule, how does the “Efficacy in % found” value (Venturia inaequalis; in vivo) read?
A: 0%

Q: And the “Efficacy in % found” value (Alternaria solani; 500 ppm a.i.)?
A: 65%
